Source: PubChem BioAssay AID624418 (National Center for Advancing Translational Sciences (NCATS), 2012)
In all, about 410,000 compounds went through this assay and about 530 (0.13%) were called active. The inconclusive results got no clear call from the source; some entries with a clear call stand among them for comparison. Calls follow the shape of the dose curve; as a rule, active = well fitted inhibition curve with a large enough effect; inconclusive = small, poorly fitted or top-dose-only effect, or another doubt; inactive = no such curve, though single readings can be large or run the other way. Where the call is inconclusive, the potency comes from a doubtful curve fit.

Test: qHTS of GLP-1 Receptor Inverse Agonists: Cytotox Screen
Settings: HEK293 cAMP-luciferase reporter cells, luminescence, 24 h; series mostly up to 38.3 µM
Method in brief: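 Quantitative HTS format, 1536 wells, 200 cells/uL seeded. Compounds: 23 nL, 24 h, 37 °C. Detection: luciferase reagent, luminescence at 12 min RT; decreased signal taken as cytotoxic.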
Potency is read from the fitted curve at half-maximal effect.

SMILES | Potency
CCOc1cc2[nH]c(=S)n(Cc3ccc(C(=O)NCCN(CC)CC)cc3)c(=O)c2cc1OCC | inconclusive: 28.2 µM [inhibitor, single point]
CCC1ON(c2ccccc2)C2c3nc4ccccc4n3CC12 (stereo not given) | inconclusive: 28.2 µM [inhibitor, single point]
CCOc1ccc(CNCc2ccccc2Cl)cc1 | inactive
CCCOc1ccc(CN(CCC#N)C(=S)NC(=O)c2ccccc2)cc1 | inconclusive: 3.55 µM [inhibitor, full curve, poor fit]
CC(C)Cc1nnc(NC(=O)c2cccc(S(=O)(=O)N3CCOCC3)c2)s1 | inactive
Cc1ccc(Nc2nc(-c3c(C)nc4ccccn34)cs2)cc1 | inactive
Cc1ccc(/C=N/NC(=O)c2sccc2OCc2ccc(F)cc2)cc1 | inconclusive: 8.91 µM [inhibitor, partial curve]
CCCN(CC1CC1)C(=S)Nc1ccc(Oc2ccccc2)cc1 | inconclusive: 28.2 µM [inhibitor, single point]
O=C(NCC(O)c1ccccc1)c1cccc(S(=O)(=O)N2CCOCC2)c1 (stereo not given) | inactive
COc1ccc(C2c3cc4c(cc3OC(N3CCOCC3)C2C)OCO4)c(OC)c1 (stereo not given) | inconclusive: 2.51 µM [inhibitor, full curve, poor fit]
O=[N+]([O-])c1c(Nc2ccccc2O)cc(Cl)c2nonc12 | inconclusive: 12.6 µM [inhibitor, partial curve, poor fit]
Cc1cc(C)cc(NC(=O)c2cc(C)n(Cc3cccs3)c2C)c1 | inconclusive: 3.98 µM [inhibitor, partial curve, poor fit]
CCN1C(=O)[C@H]2[C@@H](c3ccc(OC)cc3)N3C(=O)CN(Cc4ccccc4)C(=O)[C@@]3(Cc3ccccc3)[C@H]2C1=O | inconclusive: 0.501 µM [inhibitor, full curve, poor fit]
O=C(NC1CCCC1)c1cc(-c2ccccc2O)on1 | inactive
CCC(=O)Nc1nonc1-c1nc2ccccc2n1Cc1ccccc1 | inactive
COC(=O)c1ccc(C(=O)OC)c(NC(=O)CSc2n[nH]c(N)n2)c1 | inconclusive: 12.6 µM [inhibitor, partial curve, poor fit]
Cc1nn(-c2ccc3nnc(C)n3n2)c(C)c1CCC(=O)Nc1ccc(OC(F)(F)F)cc1 | inactive
CS(=O)(=O)c1nc(-c2ccc(Br)cc2)cc(-c2ccccc2)c1C#N | inconclusive: 28.2 µM [inhibitor, single point]
Cc1[nH][nH]c(=O)c1N=Nc1ccc(S(N)(=O)=O)cc1 | inconclusive: 28.2 µM [inhibitor, single point]
CCOC(=O)c1cc(CC)sc1NC(=O)C1CC(=O)NN1Cc1ccccc1 (stereo not given) | inconclusive: 28.2 µM [inhibitor, single point]
Cc1ccc(NC(=O)CS(=O)CC(=O)Nc2ccc(N3CCOCC3)cc2)cc1Cl (stereo not given) | inconclusive: 25.1 µM [inhibitor, single point]
CNc1nc(N/N=C/c2cc([N+](=O)[O-])ccc2F)nc(Nc2ccccc2)n1 | inconclusive: 11.2 µM [inhibitor, single point]

SMILES | Potency
COc1ccc(N2CC(NC(=O)c3ccc4ccccc4c3)CC2=O)cc1OC (stereo not given) | inactive
O=C(CNc1cccc(S(=O)(=O)N2CCCCCC2)c1)Nc1cccc([N+](=O)[O-])c1 | inconclusive: 20 µM [inhibitor, single point]
COc1ccccc1-c1cc(C(F)(F)F)nc(S(C)(=O)=O)n1 | inconclusive: 11.2 µM [inhibitor, partial curve, poor fit]
O=C(C(=O)N1CCN(c2ccc([N+](=O)[O-])cc2)CC1)c1cn(CC(=O)N2CCOCC2)c2ccccc12 | inconclusive: 28.2 µM [inhibitor, single point]
CCn1nc(C)cc1C(=O)NC1CCCc2c1cnn2-c1ccc(C)c(C)c1 (stereo not given) | inconclusive: 11.2 µM [inhibitor, single point]
C/C(=N\Nc1nc(C)cc(-c2ccccc2)n1)c1ccc(C)o1 | inconclusive: 14.1 µM [inhibitor, partial curve, poor fit]
CCCCCCCCCCn1ccc(=N)cc1 | inconclusive: 2.24 µM [inhibitor, full curve]
O=C(NC(=S)N1CCCCC1c1cccnc1)c1ccc(F)cc1 (stereo not given) | inconclusive: 11.2 µM [inhibitor, single point]
CC(=O)Nc1nonc1-c1nnc(SCC(=O)Nc2ccc(C)c(Cl)c2)n1-c1ccccc1 | inactive
CCOc1ccc(S(=O)(=O)NCCCN2CCOCC2)c2ccccc12 | inactive
NC(=S)N/N=C/c1ccc(-c2ccc([N+](=O)[O-])cc2)o1 | inconclusive: 10 µM [inhibitor, partial curve, poor fit]
Cc1ccc(NC(=S)Nc2ccc(C(C)C)cc2)cc1S(=O)(=O)N1CCCCCC1 | inconclusive: 28.2 µM [inhibitor, single point]
O=C(NCC(=O)N1CCN(Cc2ccccc2)CC1)c1ccc(Cl)cc1 | inconclusive: 28.2 µM [inhibitor, single point]
COc1ccc(-c2oc3ncn4nc(-c5ccccc5C)nc4c3c2-c2ccc(OC)cc2)cc1 | inactive
C=CCNC(=S)N/N=C(\C)c1ccccn1 | inactive
CCOC(=O)c1c(NC(=O)/C=C/C(=O)O)sc(C)c1-c1ccc(Cl)cc1 | inconclusive: 12.6 µM [inhibitor, partial curve, poor fit]
CC(C)(C)c1ccc(C(=O)Nc2ccc(C(=O)N3CCCC3)cc2)cc1 | inconclusive: 14.1 µM [inhibitor, single point]
COc1ccc(OCC(=O)N2CCN(C(=O)c3ccc(F)cc3)CC2)cc1 | inconclusive: 28.2 µM [inhibitor, single point]
CCOc1ccccc1C1C2=C(COC2=O)Nc2cc3c(cc21)OCO3 (stereo not given) | inconclusive: 0.794 µM [inhibitor, full curve, poor fit]
COCCNC(=S)N=Nc1c(O)[nH]c2ccc([N+](=O)[O-])cc12 | inconclusive: 3.16 µM [inhibitor, full curve, poor fit]
Fc1ccc(Cn2nnnc2C(c2cccs2)N2CCN(C3CCCCC3)CC2)cc1 (stereo not given) | inconclusive: 1.41 µM [inhibitor, full curve, poor fit]
CCN(CC)CCOC(=O)c1ccc(NC(=O)CCCN2C(=O)S/C(=C/c3ccc(OC)cc3)C2=S)cc1 | inconclusive: 4.47 µM [inhibitor, partial curve]

SMILES | Potency
O=C(Nc1nnc(-c2ccco2)o1)c1ccc(N2C(=O)CCC2=O)cc1 | inactive
N#Cc1ccc(Nc2nc(-c3ccc(O)cc3O)cs2)cc1C(F)(F)F | inconclusive: 31.6 µM [inhibitor, partial curve, poor fit]
O=C(NCCc1nc2ccccc2n1CCCOc1ccc(Cl)cc1)C1CCCCC1 | inconclusive: 10 µM [inhibitor, partial curve]
C=CCn1c(C23CC4CC(CC(C4)C2)C3)n[nH]c1=S | inconclusive: 20 µM [inhibitor, single point]
CC(C)c1ccc(NCCC(=O)c2cccs2)cc1 | inconclusive: 3.98 µM [inhibitor, partial curve, poor fit]
Cc1cccc(NC(=O)CSc2nccn2-c2cccc(Cl)c2)c1C | inactive
Cc1cccc(NC(=O)c2sc3nc(-c4ccccc4)cn3c2C)n1 | inconclusive: 12.6 µM [inhibitor, single point]
Cc1ccc(NC(=O)c2sc(-n3nc(C)c(Cc4ccc5c(c4)OCO5)c3C)nc2C)cc1C | inactive
Cc1cc(N/N=C/c2ccccc2Cl)nc(NCc2ccccc2)n1 | inconclusive: 31.6 µM [inhibitor, single point]
O=C(Nc1ccc2oc(-c3ccccc3F)nc2c1)c1ccc2c(c1)OCCO2 | inconclusive: 11.2 µM [inhibitor, single point]
O=C(CCN1C(=O)/C(=C/c2ccccc2)SC1=S)NCCc1ccc(O)cc1 | inconclusive: 10 µM [inhibitor, single point]
CCOc1ccc(Nc2cc(C)nc(-n3nc(C)cc3C)n2)cc1 | inconclusive: 0.891 µM [inhibitor, full curve]
Cn1c(=O)c2c(ncn2CC(=O)N2CCN(c3ccc([N+](=O)[O-])cc3)CC2)n(C)c1=O | inconclusive: 20 µM [inhibitor, single point]
CC(C)=CCN1CCN(Cc2nc(C(C)C)cs2)CC1CCO (stereo not given) | inconclusive: 2.51 µM [inhibitor, partial curve, poor fit]
COc1ccc(Cl)cc1N1C(=O)/C(=C\c2sccc2C)N=C1SCC(=O)NC1CC1 | inactive
CCC1(C)Cc2c(sc3nc(NN)n(C)c(=O)c23)CO1 (stereo not given) | inconclusive: 10 µM [inhibitor, single point]
CC(=O)c1cccc(NC(=S)Nc2ccn(Cc3cccc4ccccc34)n2)c1 | inconclusive: 12.6 µM [inhibitor, single point]
Cc1ccccc1C(C(=O)NC1CCCC1)N(C(=O)Cc1cccs1)c1ccc2c(c1)OCCO2 (stereo not given) | inactive
Cc1ccc(Cl)cc1NC(=S)N(Cc1ccccc1)Cc1cccnc1 | inconclusive: 11.2 µM [inhibitor, single point]
N=c1n(CCN2CCCCC2)c2ccccc2n1CC(O)COc1ccc(Cl)cc1Cl (stereo not given) | inconclusive: 10 µM [inhibitor, partial curve, poor fit]
CC(=O)Oc1ccc(OC(C)=O)c2c1CC(C)=C(C)C2 | inconclusive: 28.2 µM [inhibitor, single point]
